The campaign covered roughly 45,000 compounds. About 65 (0.1%) were called active. Calls come from the whole dose curve; as a rule, active = well fitted activation curve with a large enough effect; inconclusive = small, poorly fitted or top-dose-only effect; inactive = no such curve, though single readings can be large or run the other way. The list shows a part of the results.
Each compound was assayed against Galactocerebrosidase (Homo sapiens) (UniProt P54803) (assay: A Novel Cell-Based Assay to Identify Small Molecules for B -Galactocerebrosidase). Settings: 145M-Twi-hGALC-G270D cells, HMU-beta-Gal fluorescence, 48 h; series mostly up to 57.5 µM; activation: at the top concentration.
Procedure, shortened: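 qHTS, 1536-well; 145M-Twi-hGALC-G270D cells (WT line also made) in DMEM/F12 + 10% FBS; compound incubation on live cells; HMU-β-gal 0.1 mM final, pH 5.2, NaTC; carbonate stop; fluorescence increase = enhanced residual activity.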
Note: 0% is about no effect; nearly all actives have a fitted effect of over 65% in size.

Chain of UniProt P54803 (P54803 whole entry, looked up): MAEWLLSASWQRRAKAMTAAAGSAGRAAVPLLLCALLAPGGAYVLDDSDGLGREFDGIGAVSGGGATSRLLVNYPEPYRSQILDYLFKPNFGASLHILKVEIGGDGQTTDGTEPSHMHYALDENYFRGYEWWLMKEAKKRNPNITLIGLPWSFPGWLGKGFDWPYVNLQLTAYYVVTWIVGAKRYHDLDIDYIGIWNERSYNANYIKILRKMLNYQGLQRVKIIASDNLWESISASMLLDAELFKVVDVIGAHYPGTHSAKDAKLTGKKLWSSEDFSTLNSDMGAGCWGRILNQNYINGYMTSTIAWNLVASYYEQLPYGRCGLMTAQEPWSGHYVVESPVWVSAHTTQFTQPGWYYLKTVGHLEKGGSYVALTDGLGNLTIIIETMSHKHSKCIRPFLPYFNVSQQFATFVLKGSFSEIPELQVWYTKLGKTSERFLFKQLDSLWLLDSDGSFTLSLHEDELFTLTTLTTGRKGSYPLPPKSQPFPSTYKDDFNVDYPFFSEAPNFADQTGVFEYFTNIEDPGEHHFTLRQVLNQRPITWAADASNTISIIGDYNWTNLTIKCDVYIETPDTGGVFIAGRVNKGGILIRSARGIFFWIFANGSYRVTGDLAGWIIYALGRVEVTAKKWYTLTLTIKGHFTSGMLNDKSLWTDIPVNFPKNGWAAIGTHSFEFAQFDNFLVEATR

activation, inactive:
CCOC(=O)c1ccc(CN(Cc2ccccc2C)S(=O)(=O)c2ccc(F)c(C(=O)Nc3cccc(OC)c3)c2)cc1 -13%
O=C(CC1C(=O)N(c2ccccc2)C(=O)N1Cc1ccc2c(c1)OCO2)Nc1ccccc1 (stereo unspecified) -6.89%
Cc1c(C)n(Cc2ccc(F)cc2)c2ccc(C(=O)Nc3ccc(Cl)cc3)cc12 0.588%
Cc1ccc(-c2cc3c(n2-c2ccccc2F)CC(C)(C)CC3=O)cc1 -18.6%
O=C1CC(c2nnc(Cc3ccccc3Cl)o2)CN1c1ccccc1 (stereo unspecified) -7.8%
COc1ccc(C)cc1NC(=O)N1CCN(c2cc(-c3noc(C)n3)ccc2C)CC1 -7.68%
COc1ccc(NC(=O)CN2C(=O)COc3ccc(S(=O)(=O)N4CCCCC4)cc32)cc1Cl 2.19%
O=C(CN1C(=O)CSc2ccc(S(=O)(=O)N3CCCC3)cc21)NCc1ccc(Cl)cc1 -8.34%
CCOC(=O)c1cnc2ccc(C)cc2c1NCCc1ccc(OC)c(OC)c1 -10.6%
Cc1ccc(NC(=O)c2sc3nc(-c4ccc(F)cc4)ccc3c2N)cc1F -14.8%
COc1ccc(NC(=O)c2oc3ccccc3c2NC(=O)Cc2cccs2)cc1 17%
O=C(Cn1cc(C(=O)C2CC2)c2ccccc21)Nc1ccc(Br)cc1 -15.9%
COc1ccccc1N1CCN(c2ccc(-c3nc(-c4ccccc4)no3)cc2[N+](=O)[O-])CC1 -1.08%
CCC1CCCCN1CCCNC(=O)c1ccc2c(c1)N(Cc1ccc(Cl)cc1)C(=O)c1ccccc1S2(=O)=O (stereo unspecified) -13.4%
CC(=O)c1ccc(NC(=O)CCCc2nc(-c3cccc(C)c3)no2)cc1 -25.8%
Cc1ccc(C)c(Cn2c(=O)n(CCCCCC(=O)NCc3ccc4c(c3)OCO4)c(=O)c3sccc32)c1 -21.6%
O=S(=O)(Nc1cccc(-c2ccc(N3CCCC3)nn2)c1)c1ccc(F)cc1F 0.501%
Cc1ccc(S(=O)(=O)c2nc(-c3cccc(C)c3)oc2N2CCCCC2)cc1 -8.65%
Cc1ccccc1-n1c(=O)c2c3c(sc2n2cnnc12)CCCC3 -26.3%
COc1ccc(CNC(=O)C2CCN(c3nnc(-n4cccc4CNc4ccc(C)cc4)s3)CC2)c(OC)c1 1.98%
COc1ccc(Cn2ccnc2SCC(=O)Nc2cc(C(F)(F)F)ccc2Cl)cc1 -9.54%
COc1cccc(Nc2sc(C(=O)c3ccc(F)cc3)c(N)c2C(=O)NCc2ccc(C)cc2)c1 -25.3%
CCN(CC)C(=O)Cn1c(=O)cc(C)c2c(C)nn(C)c21 -12.7%
CCOC(=O)c1ccccc1NC(=O)c1sc2ccccc2c1Cl -16.6%
COc1ccc(-c2cn3nc(N4CCCC(C(=O)NCc5ccccc5C)C4)sc3n2)cc1 (stereo unspecified) -12.4%
COc1ccc(NC(=O)CSc2c3c(nc4ccccc24)CCC3)c(OC)c1 -19.5%
COc1ccc(N2CCN(C(=O)CN(C)S(=O)(=O)c3cccs3)CC2)cc1 2.67%
Cc1ccc(Cl)cc1N1CCN(C(=O)c2cc(S(=O)(=O)N3CCCCCC3)cn2C)CC1 -10%
Cc1cc(Cl)ccc1Nc1ncnc2onc(C)c12 -7.27%
CN(Cc1ccc(F)cc1)S(=O)(=O)c1nnc(NC(=O)c2ccc(F)cc2)s1 6.99%
COc1cccc(NC(=O)CSCn2nnc3c(=O)[nH]c(Cc4ccc(F)cc4)nc32)c1 -10.6%
O=C(Nc1ccccc1Cl)C1CCN(c2nc3ccccc3[nH]2)CC1 -7.08%
Fc1ccccc1OCc1nc(-c2ccc(-n3cccc3)cc2)no1 -0.37%
O=C(CN(CCc1ccccc1)S(=O)(=O)c1ccccc1)NCc1ccc(Cl)cc1 -27.9%
COc1cc(CNc2ccc3c(c2)ncn3C(C)C)cc(OC)c1OC -20.4%
COc1ccc(NC(=O)C2CCCN(S(=O)(=O)c3ccc4c(c3)CCCN4C(C)=O)C2)cc1 (stereo unspecified) 6.39%
COC(=O)c1ccc2c(c1)N(CC(=O)Nc1cccc(C(F)(F)F)c1)C(=O)c1ccccc1S2 -12.9%
O=C(CSc1nc2c([nH]c3ccccc32)c(=O)n1-c1ccccc1F)Nc1ccccc1C(F)(F)F -6.61%
O=C(NCCCN1CCN(c2ccc(F)cc2)CC1)c1sc2ncccc2c1-n1cccc1 -30.4%
O=C(Cn1ccn(-c2cccc(Cl)c2)c(=O)c1=O)c1ccc(F)cc1 1.95%
Cc1ccc(NC(=O)CCS(=O)(=O)c2ccc(Br)cc2)c(C)c1 -15.2%
CCOc1ccc(CNC(=O)c2[nH]c3ccccc3c2Sc2ccc(C)cc2)cc1 -9.82%
Cc1ccc2c(c1)CC(C)N2S(=O)(=O)c1nnc(NC(=O)c2ccccc2F)s1 (stereo unspecified) -9.91%
CC(C)c1ccccc1NC(=O)CN(c1ccccc1)S(=O)(=O)N(C)C -11.2%
CCOc1ccc(-c2nn(-c3ccccc3)cc2C2NC(=O)NC(C)=C2C(=O)OC(C)C)cc1C (stereo unspecified) -29.6%
O=C1C(c2ccc(F)cc2)N(Cc2ccccc2Cl)C(=O)CN1C1CCCCC1 (stereo unspecified) -15.8%
Cc1cc(C)cc(NC(=O)CCS(=O)(=O)c2ccc3nc(C)sc3c2)c1 -8.43%
Cc1ccc(-n2nc(CO)c(C(=O)NCCCCc3ccccc3)n2)cc1 -7.84%
CCOC(=O)c1cc(-c2ccccc2)n(CCC(=O)Nc2ccc(C)cc2Cl)c1C -9.08%
Cc1ccc2c(c1)C(=O)C(=O)N2Cc1ccc(OC(C)C)cc1 -38.4%
COc1ccc(OC)c(S(=O)(=O)N2Cc3ccccc3CC2C(=O)Nc2ccc(Cl)cc2)c1 (stereo unspecified) -6.42%
O=C(Nc1ccc(F)cc1)C1CCCN(c2ncnc3c2nc2n3CCCCC2)C1 (stereo unspecified) -8.74%
Cc1ccc(N(C)C(=O)Cn2cc(S(=O)(=O)N3CCCC3)c(S(=O)(=O)N3CCCC3)c2)cc1 -12.8%
O=C(Nc1cc2ccc(O)cc2oc1=O)c1ccc(F)cc1 21.8%
CCOC(=O)c1[nH]c(C)c(CCC(=O)NC(C)c2ccccc2)c1C (stereo unspecified) -17%
CCOC(=O)c1ccc(NC(=O)C(C)N(c2ccc(OCC)cc2)S(C)(=O)=O)cc1 (stereo unspecified) -13.5%
Cc1c(C(=O)Nc2ccc(F)c(F)c2)oc2ccc(S(=O)(=O)N(C)C3CCCCC3)cc12 -9.38%
COc1ccc(CNC(=O)c2cc3c(=O)n4cccc(C)c4nc3s2)cc1 -8.65%
COc1cccc(CNC(=O)c2oc3ccc4c(c3c2C)C(=O)CC(C)(C)O4)c1OC -8.68%
COc1ccc(CCNC(=O)CCCCn2c(=O)c3ccccc3n(Cc3ccc(Cl)cc3)c2=O)cc1OC -1.07%
Cc1cccc(CNC(=O)Cc2ccc(NC(=O)N3CCCCc4ccccc43)cc2)c1 -6.16%

— PubChem BioAssay AID1159614 (National Center for Advancing Translational Sciences (NCATS), 2016)
